Measurements published in publication PMC10703783, “Programmed cell death 11 modulates but not entirely relies on p53-HDM2 loop to facilitate G2/M transition in colorectal cancer cells” (Oncogenesis, 2023).

Biological target: T1, His-S-tagged full-length PDCD11 (programmed cell death 11) (human, UniProt Q14690 1-1871)
T1 construct: programmed cell death 11 (PDCD11), human, Gene ID 22984, 1871 amino acids, full length; also called PDCD11-FL; ALG-4; source: expressed and purified
Assay: pull-down; GST pulldown in vitro; GST-tagged p53 or HDM2 (full length or truncations) as bait, His-S-tagged PDCD11 (full length or truncations) as prey
Conditions: both partners purified

B1: GST-tagged full-length HDM2 (natural protein)
chain: not shown
notes: HDM2, full length; also called HDM2-FL; GST-HDM2; source: expressed and purified
  binding result: binds
